Measured values taken from the RNAGym collection of RNA variant scans (doi:10.1073/pnas.2313332121).
Variants at the floor of the assay are shown more often than the library holds them.

B1: TPR 5TU (parent)
chain: GGAUCUUCUCGAUCUAACAAAAAAGACAAAUCUGCCACAAAGCUUGAGAGCAUCUUCGGAUGCAGAGGCGGCAGCCUUCGGUGGCGCGAUAGCGCCAACGUUCUCAACUAUGACACGCAAAACGCGUGCUCCGUUGAAUGGAGUUUAUCAUG

Variants of: B1
Experiment: polymerase ribozyme fitness, log enrichment relative to wild type (log ratio); higher = more active; in vitro selection for triplet polymerase activity
Outline: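 A single round of triplicate in vitro selection, including frozen incubation at −7 °C, was applied to PCR-built, transcribed mutant libraries of each subunit of a heterodimeric triplet polymerase ribozyme. Illumina sequencing of input and output libraries retained genotypes with ≥10 input reads and ≥1 read per output. Fitness is the base-2 logarithm of genotype enrichment divided by wild-type enrichment, from inverse-variance-weighted replicate averages.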

Polymerase ribozyme fitness (log ratio), -1.56:
A3G A41U C96U

Polymerase ribozyme fitness (log ratio), ≤ -4.2:
A3C A16G A29U A41U C75G G86A A91G G92C A113C C129A A137C C149G
A3C A16G C99G U102G A106U
A3C A16U C93G C118U U130G
A3C A17U C54U G74U C131U
A3C A19U A41C G74A G92C G152U
A3C A19U A52C C57A C76G C87A C118A C125U
A3C A22G A28G A40G A89C A91G A142U C149U
A3C A24G A73G C85G
A3C A28U U77A C93U C129A U148G
A3C A37C G50A A66G C95G U127A
A3C A39G C85G U101G C116G U145G
A3C A52C G68A G81U G92A C125A G136U G140U U151A
A3C A52U G59A A60C G68C G84A C96G G133A
A3C C5A C10U G11A G62C C93U A97U
A3C C5U C43U G70C G84A A106U A113C
A3C C8A A21U A52C G58C U82G C93A C95G A107U U130G U139G
A3C C8A C51U G67A G83U G94A A98C C99G U109C A120U U145G
A3C C8G G11C C54U C96U U127C
A3C C10G A29U U33G C38U C63U
A3C C10U U31C C85G C114A
A3C C14U A16G G59A C87A
A3C C18G C43U
A3C C18G C54U C57G A60G C87G A106C A142C
A3C C35U C75A C129G
A3C C36A U82A C105U
A3C C36G A60C G83U C118G
A3C C38A G71U G94U U101G G126C
A3C C54G U77G A91U C103U C132A G143C
A3C C57U U82G G84A U90A C93G C149U
A3C C76G
A3C C85A C99G A142G
A3C G11C G48U A52C C69A C85U U134G A150G
A3C G11U C38G G42C G86A C99A
A3C G46C G48C A64G G100U A107G
A3C U4G A21C C38G A41C G68A G81A C85U C95U C116G
A3C U4G A49U U61C G70A G92U
A3C U6A A16G G50A A91C
A3C U7G A17C C54G G67A U77C C87A C99U U130G
A3C U9A A30U G48A U53A C54U G67U C93G G126A U135G
A3C U13G C14A A29U G67C C93A A106G
A3C U33G A52C U53G C87U G143A
A3C U44A C93U C99G C131U G136A U139A
A3C U44G U56A G84C
A3C U45A G67U G71C G80C C95A C103A
A3C U53A U55G C57G A64G C85G
A3C U78G G94A A97U
A3G A16C A52G G68A A73U C85A
A3G A20C A29U A41G C54U C87U C95U U135G
A3G A20U C27A G58C A60C U78G G83U G94A C132G G141A
A3G A21C C96G A110G C149A A150C
A3G A21G A29G G59A G84A
A3G A21U C85U G112U
A3G A22G A91G C96U U134C
A3G A29G A39G G86U C99G
A3G A39G U61A G68A C93U
A3G A49C C51U G59C C95U C131G
A3G A64C G65A G70A U82C G84A
A3G A91U
A3G C5U C8A A21C C69A G71C G94C C132U
A3G C8A C51U G83U A97U C105U U111G C131G C149U
A3G C8A G11U G50U G100C G126U
A3G C8G A30G G48C A64C C87G A137G
A3G C8G U53A C54U C87G A89U G94U A97G A115G
A3G C10A A24G A28C A49C C87A
A3G C10A A29G U82G G84A A137G
A3G C10G A17U C57U C114A A121C
A3G C14G C38G
A3G C14G U61G G71A G86C A91C C105G C114G G143A U145A
A3G C14U G42C G59A C96U A122U U146C
A3G C18U U56G G94A A110U A138U U139A
A3G C32G C36A C118G U146A
A3G C38A G124C U134G G136U U146G
A3G C57G A73U G83A C93U C96A
A3G C75A G84U G86U U101A C108U U127G
A3G C85A A89C C108G A115G C132U U139A

Polymerase ribozyme fitness (log ratio), -4.14:
A3C G88C

Polymerase ribozyme fitness (log ratio), -3.65:
A3G A113G C118G

Polymerase ribozyme fitness (log ratio), -1.32:
A3G C18A C93G C123U C131U

Polymerase ribozyme fitness (log ratio), -3.94:
A3G C27U G86A

Polymerase ribozyme fitness (log ratio), -2.6:
A3G C116U G124A A142G

Polymerase ribozyme fitness (log ratio), -3.42:
A3C A16C G48A C96G

Polymerase ribozyme fitness (log ratio), -3.54:
A3G A16U U53A C75U G92U
